Biological target: trypsin (human) (UniProt P07477)
Test: cell-based or functional assay

% Inhibition: 100%
Percentage inhibition: 100%
Substance: AATWT (recombinant wild type alpha-1-antitrypsin) (a stretch of the chain, chain not printed)

Source: patent US20140341881A1
